This passage reports self-cleavage results from the RNAGym collection of RNA variant scans (doi:10.7554/elife.90254).

Read counts are not given, so values of variants with three or more changes are uncertain.

B1: LINE1-mini (parent)
chain: GGCAGAGCUCAACACAGCGUGGCAAAGUGGCUGUGGCUAGACUGCC

The variants in the data set derive from B1. The experiment in a line: self-cleavage, relative activity (ratio to wild type); higher = more cleavage; in vitro, sequencing; the parent is a self-cleaving ribozyme.
On to GGCAGAGCUCAACACAGCGUGGUAAACAGGCUGUGGCUACACUGCC, for which the self-cleavage is 0.04.
As for GGCAGAGCUCAACACAGCGUGGUAAAGUGGCUGUGGCGAGACGGCC, the figure is 0; as for GGCAGAGCUCAACACAGCGUGGAAAAGUUGCUGUGGCUCGACUGCC, 0.2.
Consider GGCAGAGCUCAACACAGCGUGGAAAAGUGGCUGUGGGUAGAGUGCC, for which the self-cleavage is 0.
The result for GGCAGAGCUCAACACAGCGUGGUCGAGUGGCUGUGGCUAGACUGCC reads 0.96.
The result for GGCAGAGCUCAACACAGCGUGGGAACGGGGCUGUGUCUAGACUGCC reads 0.13; that for GGCAGAGCUCAACACAGCGUGGUAAAGUGGCUGUGGCUAGAAUACC, 0.15.
As to GGCAGAGCUCAACACAGCGUGGAAACGUGGCUGUGGCGAGACUGCU, the self-cleavage was determined as 0.01.
Regarding GGCAGAGCUCAACACAGCGUGGUAAAGUGGCUGUGGCCAGAUUUCC, the self-cleavage worked out at 0.01.
The result for GGCAGAGCUCAACACAGCGUGGUAAAGUGGCUGUGGUUACACUGCC reads 0.04; that for GGCAGAGCUCAACACAGCGUGGGAAAGUGGCUGUAGCAAGAACGCC, 0.07; that for GGCAGAGCUCAACACAGCGUGGAAAAGUGGUUGUGGCUAGACUACC, 0.16.
As for GGCAGAGCUCAACACAGCGUGGUUAAGUGGCUGUUGCUAGACUGCC, the figure is 0.06.
The result for GGCAGAGCUCAACACAGCGUGGAAAAGUGGCUGUGGCUGGACUUCC reads 0.03; that for GGCAGAGCUCAACACAGCGUGGAAAAGUGGCUGCGGCUAGACUUCC, 0.05.
On to GGCAGAGCUCAACACAGCGUGGAAAAGCGGUUGUGGUUAGACUCCC, for which the self-cleavage worked out at 0.02.
As for GGCAGAGCUCAACACAGCGUGGUAAAGUGUCAAUGGCUAGACUGCC, the figure is 0.03; as for GGCAGAGCUCAACACAGCGUGGUUAAUUGGCUGUGGCAAGACUGUC, 0.77.
As for GGCAGAGCUCAACACAGCGUGGGAAAGUGGAUUUGGCUAGACUGCC, the figure is 0.02; as for GGCAGAGCUCAACACAGCGUGGUGAAGUGGCUGUAGCUAGACUGCC, 0.16.
Regarding GGCAGAGCUCAACACAGCGUGGAAACGUGGAUGUGGCUAGACUGCC, the self-cleavage was found to be 0.46.
As for GGCAGAGCUCAACACAGCGUGGUAAAGUGGCUCUGGCUAGAUUGCC, the figure is 0.03; as for GGCAGAGCUCAACACAGCGUGGAAAAGUGGCUGUGGCUAAAAUGCC, 0.06.
The result for GGCAGAGCUCAACACAGCGUGGUAAAUUGGGGGUGGCUAGACUGCC reads 0.08; that for GGCAGAGCUCAACACAGCGUGGUACAAUGGCUGUGGCAAGACUGCC, 0.53; that for GGCAGAGCUCAACACAGCGUGGUAAAAUUCCUGUGGCUAUACUGCC, 0.06.
Consider GGCAGAGCUCAACACAGCGUGGGAAAGUGGCUGUGGCUAGAUUGCU, for which the self-cleavage is 0.07.
The result for GGCAGAGCUCAACACAGCGUGGUAAAGUGGGUGUGGCUAGCCUGCC reads 0.03; that for GGCAGAGCUCAACACAGCGUGGAAAAGUGGCUGUGUCUAGACAGCC, 0.03.
The result for GGCAGAGCUCAACACAGCGUGGGAAAGUGGCUGUGUAUAGUCUGCC reads 0.11; that for GGCAGAGCUCAACACAGCGUGGUAAAAUGGCUGUGGCUAGACUACC, 0.21; that for GGCAGAGCUCAACACAGCGUGGUAAAGUGGCUGGGGCUUGACUGCC, 0.26.
As for GGCAGAGCUCAACACAGCGUGGGAAAGUCGCUGUGGCUAGAAUGCC, the figure is 0; as for GGCAGAGCUCAACACAGCGUGGUAAAGUGGUUGUGGCUAGGCUGCC, 0.
As to GGCAGAGCUCAACACAGCGUGGAAAACUGGCUGUGGCUAGACUACC, the self-cleavage is 0.09.
Turning to GGCAGAGCUCAACACAGCGUGGUAAAGUGGCGCCGGCUAGACUGCC, the self-cleavage turned out to be 0.15.
For the variant GGCAGAGCUCAACACAGCGUGGAAAAGUUGCUCUGGCUAGACUGCC, the self-cleavage worked out at 0.03.
As for GGCAGAGCUCAACACAGCGUGGAAAAGUGGUUGUGGUUAGACCGCC, the figure is 0.11.
The result for GGCAGAGCUCAACACAGCGUGGUAAAUUGGCUGUGGCUAGGCUGCC reads 0.12; that for GGCAGAGCUCAACACAGCGUGGUAAAAUGGCAGUGGCUAGACUGCC, 0.07.
The result for GGCAGAGCUCAACACAGCGUGGAAAAGUAGCUGCGGCUAGACUGCC reads 0.15; that for GGCAGAGCUCAACACAGCGUGGAAAAGUGGCUGUGGCUAGAAUACC, 0.97.
On to GGCAGAGCUCAACACAGCGUGGUAAAGUGGCUCUGGCUAGACUGAC, for which the self-cleavage was 0.03.
As for GGCAGAGCUCAACACAGCGUGGAAAAAUUGCUGUGGCUAAACUGCC, the figure is 0.16; as for GGCAGAGCUCAACACAGCGUGGUAAAUUGGUUGUGGCUAGACUGCC, 0.13; as for GGCAGAGCUCAACACAGCGUGGAAAAGUGGCUGUGGCUGGACUGCU, 0.17.
As for GGCAGAGCUCAACACAGCGUGGAAAAGCGGCUGUGGCCAGACUGCC, the figure is 1.24.
The result for GGCAGAGCUCAACACAGCGUGGAAUAGUGGCUGUGGCAAGACUGCC reads 0.06; that for GGCAGAGCUCAACACAGCGUGGGAAAGUGGCUGGGGCUAGACUGGC, 0.08.
As to GGCAGAGCUCAACACAGCGUGGUAAAGUGGCUGUCGCUAGACGGCC, the self-cleavage was 0.
The result for GGCAGAGCUCAACACAGCGUGGAAAAGUGUCUGUGCCUAGACUGCC reads 0.4; that for GGCAGAGCUCAACACAGCGUGGAAAAGUAGCUGUGGCUAGACUGAC, 0.55; that for GGCAGAGCUCAACACAGCGUGGUAAAGCGGAUGUUGCUAGACUGUC, 0.02.
The result for GGCAGAGCUCAACACAGCGUGGGAAAGUGGUUGUGGCGAGACUGCC reads 0; that for GGCAGAGCUCAACACAGCGUGGGAAAGUGGCUCUGGCCAGACUGCC, 0.03.
For the variant GGCAGAGCUCAACACAGCGUGGGAAGGUGUCUGUGGCUAGACUGCC, the self-cleavage is 0.6.
